Measurements as given in PubChem BioAssay AID485344 (National Center for Advancing Translational Sciences (NCATS), 2010).
The campaign covered roughly 340,000 compounds. About 6,900 (2%) were called active. Rule as the data show it: active = inhibition above about 30%; inactive = below that, where a call was filed. The list shows a part of the results, in another mix than the full data. Entries without a call were filed so in the source.

Target: D(2) dopamine receptor (Homo sapiens) (UniProt P14416)
Sequence of UniProt P14416 (P14416 whole entry, looked up): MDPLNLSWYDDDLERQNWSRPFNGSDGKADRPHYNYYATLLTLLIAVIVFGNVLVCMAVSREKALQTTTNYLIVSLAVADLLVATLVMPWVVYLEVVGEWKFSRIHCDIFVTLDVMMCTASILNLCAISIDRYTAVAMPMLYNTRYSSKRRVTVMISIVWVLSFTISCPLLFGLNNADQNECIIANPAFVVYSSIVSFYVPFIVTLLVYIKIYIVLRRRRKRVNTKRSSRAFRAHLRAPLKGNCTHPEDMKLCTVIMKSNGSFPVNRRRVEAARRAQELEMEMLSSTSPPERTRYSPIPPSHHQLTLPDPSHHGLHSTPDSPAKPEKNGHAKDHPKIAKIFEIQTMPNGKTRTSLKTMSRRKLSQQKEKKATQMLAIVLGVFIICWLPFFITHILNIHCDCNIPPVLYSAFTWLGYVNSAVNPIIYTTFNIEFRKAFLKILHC
Assay: HTS Assay for Allosteric Antagonists of the Human D2 Dopamine Receptor: Primary Screen for Antagonists; also: 0% is about no effect
Conditions: HEK293 TREx D2 cells, calcium flux, dopamine EC80; at 10 µM; stronger effect = higher value
Method in brief: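 Measurement of antagonist activity uses fluorescent calcium dye in inducible HEK293 T-REx D2 cells: 10 s baseline, compound addition with 180 s read, EC80 dopamine addition with a further 180 s read.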

SMILES | inhibition
O=c1oc2c(CN3CCOCC3)c(O)ccc2cc1-c1ccc(Cl)cc1 | 5.22%
CCOC(=O)c1sc(NC(=O)c2nc3ncccn3n2)c(C(=O)OC)c1C | -3.9%
O=S(=O)(NCc1ccccc1)c1ccc(-c2cnc(C3CC3)o2)cc1 | -20.9%
CCc1ccc(CSc2nc(-c3ccc(OC)cc3)nc3c2Cc2c(CO)cnc(C)c2O3)cc1 | -7.91%
COc1ccc(CNC(=O)CN(c2ccccc2OC)S(=O)(=O)c2ccc(C)cc2)cc1 | -0.548%
CC(NC(=O)c1ccc2c(c1)N(Cc1ccc(Cl)cc1)C(=O)c1ccccc1S2(=O)=O)c1ccccc1 (stereo not given) | -4.06%
CC1CCCCN1C(=O)/C=C/c1ccccc1[N+](=O)[O-] (stereo not given) | active: 30.1%
CCOc1ccc(CCNC(=O)Cn2nc(CC)n3c(cc4sc(CC)cc43)c2=O)cc1OCC | 2.53%
CCCCCn1c(=N)c(S(=O)(=O)c2ccccc2)cc2c(=O)n3ccccc3nc21 | -0.109%
COc1ccccc1CNC(=O)Cc1csc2nc(-c3ccc(Cl)cc3)cn12 | -7.11%
Cc1sc(NC(=O)c2ccco2)c(CN2CCN(c3ccc(F)cc3)CC2)c1C | active: 33%
CCOc1cc(CNC(=O)c2ccc(C)c(NC(=O)c3nsc4ccccc34)c2)ccc1OC | -3.71%
CCc1ccc(N2C(=O)CC(c3cc(OC)ccc3OC)C3=C2COC3=O)cc1 (stereo not given) | -11.3%
COc1ccc(CNC(=O)CSc2nc3ccsc3c(=O)n2Cc2ccccc2Cl)cc1 | -26.8%
Cc1cc2oc(C(=O)Nc3sc4c(c3C(=O)NCC3CCCO3)CCC4)cc(=O)c2cc1C (stereo not given) | -9.92%
O=C(Nc1ccc2oc(-c3cccnc3)nc2c1)c1ccc(-c2ccc(Cl)cc2)o1 | -4.87%
Cc1ccc(NC(=O)Cn2ncn3c(cc4ccccc43)c2=O)c(C)c1 | -9.25%
CCOc1ccc(C2CC(=O)n3nc(-c4ccc(C)cc4)nc3S2)cc1 (stereo not given) | 2.34%
O=C(NC1CCCCC1)c1ccc(CS(=O)(=O)Cc2ccccc2F)o1 | active: 43.8%
CCN(CC)S(=O)(=O)c1ccc(NC(=O)CCc2c(C)nc3cc(-c4ccc(Cl)cc4)nn3c2C)cc1 | 5.27%

SMILES | inhibition
CN(C)c1ccc(C(CNS(=O)(=O)c2ccc(Br)cc2)N2CCCC2)cc1 (stereo not given) | -1.55%
CC(C)Cc1nn2c(=O)cc(COC(=O)c3ccc4c(c3)OCO4)nc2s1 | 7.68%
COc1ccc(Cl)cc1NC(=O)CSc1ccc(-c2sc(C)nc2C)nn1 | -6.72%
CCOC(=O)c1cc2c(=O)n3ccccc3nc2n(CCCOC)c1=NC(=O)C(C)(C)Oc1ccc(Cl)cc1 | 10.8%
Cc1cc(C)cc(NC(=O)CCc2nnc3n(CC(C)C)c(=O)c4ccccc4n23)c1 | -7.82%
CC(C)N(Cc1ccccc1)C(=O)CN1C(=O)COc2ccc(S(=O)(=O)NC3CCCC3)cc21 | -1.68%
COc1cc(CNc2ccc3[nH]c(=O)[nH]c3c2)ccc1OCc1ccccc1F | 10.3%
CCN(C(=O)CSc1nc2ccccc2n1CC(=O)Nc1ccccc1C)c1ccccc1 | -7.63%
COc1ccc(-n2ccn(Cc3ccccc3Cl)c(=O)c2=O)cc1OC | 14.1%
COc1ccc(S(=O)(=O)N2CCC(N3CCN(Cc4ccccc4)CC3)CC2)cc1 | active: 73.5%
Cc1ccc(C)c(NC(=O)CSc2ncc3c(n2)-c2ccc(Cl)cc2N(C)S3(=O)=O)c1 | -3.51%
CCCn1c(CCC(=O)Nc2cc(Cl)c(OC)cc2OC)nc2cccnc21 | -25.7%
O=C(CCSCc1ccccc1Cl)N1CCN(c2cccc(Cl)c2)CC1 | -4.1%
COc1ccc(NC(=O)CC2C(=O)N(c3ccc(C)cc3)C(=O)N2C2CCCCC2)cc1 (stereo not given) | -7.76%
CC(=O)OC(COc1ccccc1)Cn1cnc2cc(C)c(C)cc21 (stereo not given) | 4.37%
CCn1nc(-c2ccccc2)c(-c2ccccc2)c(C(=O)Nc2nc(C)c(C(=O)N(C)C)s2)c1=O | -1.05%
CCc1nc2cccnc2n1-c1ccc(CC(=O)Nc2ccc(C)cc2)cc1 | 16.1%
CCOc1ccc(CNC(=O)c2cnc3sc(N(CC)CC)nn3c2=O)cc1OC | 3.51%
O=C(Cn1c(=O)n(-c2ccccc2Cl)c(=O)c2sc3ccccc3c21)N1CCCC1 | 0.616%
COc1cccc(-n2c([S-])c(C(=O)Nc3ccc(C(F)(F)F)cc3)[n+]3ccccc23)c1 | active: 35.1%

SMILES | inhibition
CCOC(=O)c1c(C)[nH]c(CCC(=O)NCCCN2CCN(c3cc(C)ccc3C)CC2)c1C | 23.5%
CCCN1CCN(CCCNC(=O)c2ccc3c(=O)n(CCc4ccccc4)c(=O)[nH]c3c2)CC1 | active: 30.5%
COc1ccccc1NC(=O)NCCCN1CCN(c2cccc(Cl)c2)CC1 | active: 63.1%
COc1ccccc1CNC(=O)CN1C(=O)CSc2ccc(S(=O)(=O)N(C)C)cc21 | 1.99%
CCOc1ccc(S(=O)(=O)N2CCN(c3ccc(Cl)c(Cl)c3)CC2)c2ccccc12 | -22.8%
CCOC(=O)c1ccc2c(c1)N(Cc1ccccc1)C(=O)c1ccccc1S2 | 20.9%
CC(C)CCn1c(=O)c2sccc2n2c(CCCC(=O)NC3CCC(C)CC3)nnc12 (stereo not given) | 7.75%
CCCCc1ccc(NC(=O)CSc2nc3ccccc3nc2N2CCOCC2)cc1 | 1.09%
CC1=CS/C(=C(/C#N)C(=O)NCc2ccco2)N1c1ccccc1 | active: 30.5%
O=C(Nc1cc(Cl)cc(Cl)c1)c1ccc(F)c(S(=O)(=O)NC2CCCCC2)c1 | -10.1%
O=C(NCCS(=O)(=O)N1CCN(c2ccc(F)cc2)CC1)C1CC(=O)N(c2ccc(F)cc2)C1 (stereo not given) | 20.7%
COc1ccc(CCNC(=O)CCSCc2ccccc2Cl)cc1OC | 14.7%
COc1cccc(-c2cc(C(=O)Nc3ccn(Cc4ccc(C)cc4)n3)no2)c1 | -28.2%
CCc1ccccc1NC(=O)Cn1c(=O)n(Cc2ccco2)c(=O)c2sc3ccccc3c21 | -1.04%
Cc1ccc(NC(=O)Cn2c(=O)n(Cc3ccc4c(c3)OCO4)c(=O)c3ccccc32)c(C)c1 | -13.5%
Cc1ccc(C)c(N2CCN(S(=O)(=O)c3cnc(N)nc3)CC2)c1 | -2.59%
Cc1ccc2nc(N3CCN(c4cccc(C)c4C)CC3)c3nncn3c2c1 | 11.3%
COc1ccc(C(C)(C)NC(=O)C2CCC(=O)N(CCCN3CCCC3=O)C2)cc1 (stereo not given) | active: 33.4%
CC(=O)c1ccc(N2CCN(c3ncnc4onc(C)c34)CC2)cc1 | -0.177%
COc1ccc(OCC(=O)Nc2ccccc2C(=O)OCc2cc(=O)n3nc(C)sc3n2)cc1 | 9.15%
